Where “and” joins values, the source holds several entries; their conditions need not be identical. Equal entries are not always repeated. For at least one compound, name, drawing or mass did not settle the structure. Some entries repeat one wording, which the source may state once for all of them. Residues, ends and D or L forms follow the SMILES beside them. *: point of attachment. PNA(A) = NCCN(CC(=O)*)C(=O)Cn1cnc2c(N)ncnc21
Legend:
STAT-3 = STAT-3 phosphorylation (Ser727, Tyr 705) in IL-6 treated U-251 cells, immunocytochemistry; format: cell-based, human; details: 5 mM loading
pERK1/2 = pERK1/2 in serum-stimulated IMR-32 neuroblastoma cells, immunofluorescence (indirect MEK1/2); format: cell-based, human; details: 5 mM loading, control stimulated 105.3, control starved 59.5
Bcl-2 = experiment: Bcl2 sublocalization, immunolabelling; format: cell-based
[1] = test system: H-661 non-small cell lung cancer cell line; experiment: Cell death at 24 h after pinocytic loading, H661; format: cell-based
[2] = test system: MCF-7 breast cancer cell line; experiment: Cell death at 24 h after pinocytic loading, MCF-7; format: cell-based
[3] = test system: MDA-MB-231 breast cancer cell line; experiment: Cell death at 24 h after pinocytic loading, MDA-MB-231; format: cell-based
[4] = test system: SKOV-3 ovarian cancer cell line; experiment: Cell death at 24 h after pinocytic loading, SKOV-3; format: cell-based
[5] = test system: LNCap prostate cancer cell line; experiment: Cell death at 24 h after pinocytic loading, LnCAP; format: cell-based
[6] = test system: DU-145 prostate cancer cell line; experiment: Cell death at 24 h after pinocytic loading, Du145; format: cell-based
[7] = test system: T-24 bladder cancer cell line; experiment: Cell death at 24 h after pinocytic loading, T24; format: cell-based
[8] = test system: IMR-32 neuroblastoma cell line; experiment: Cell death at 24 h after pinocytic loading, IMR32; format: cell-based, human
[9] = test system: LS-180 colon cancer cell line; experiment: Cell death at 24 h after pinocytic loading, LS180; format: cell-based
[10] = test system: U-251 glioblastoma cell line; experiment: Cell death at 24 h after pinocytic loading, U251; format: cell-based, human
MDA-MB-231 cells = experiment: Cell motility of MDA-MB-231 cells (petri dish method of Zhang); format: cell-based
[11] = test system: PKCα expression in LS180 colon cancer cells; experiment: Expression of PKCα in LS180 cells, flow cytometry; format: cell-based; details: both cell lines (LS180, H-661)
Description: (§1) The effect of compounds 1 to 10 on doxorubicin-induced expression of PKCα in LS180 colon cancer cells and H-661 NSCLC cells was investigated. Cells were exposed to doxorubicin (50 ng/mL) for 3 days prior to exogenous treatment with the PKI compounds at a concentration of 5 μM. Results were acquired by flow cytometry after labelling of the cells with the PKC-alpha #sc 208 antibody.
(§2) The protocol used for fixing the cells for flow cytometry is as follows. A minimum of 1.0×10^6 cells was used in each instance. Cells were trypsinized and spun down at 1,000/5 min at 4° C. All the medium was removed and the cells resuspended in 500 μl of 1×PBS, pH 7.1. The cell suspension was added into 5 mls of 1% paraformaldehyde/PBS on ice and fixed for 15 min on ice. Cells were then centrifuged at 1,000/5 min and resuspended in 10 mls of 1×PBS. Cells were centrifuged again at 1,000/5 min and resuspended in 2 mls of 70% ETOH and kept at −20° C. until needed (up to 1 week). At which time, 2 mls of 1×PBS containing 1% BSA/0.02% NaN3 was added to each tube and the cells were left on ice for 5 min to give the cells time to rehydrate. Cells were then centrifuged at 1,000/5 min and the ETOH/PBS mix removed. The cells were resuspended in 5 mls of 1×PBS and allowed to sit on ice for 5 min. This step was repeated once, then the cells were centrifuged at 1,000/5 min and resuspended in 1 ml of 1×PBS containing 1% BSA/0.02% NaN3 and 5% serum. Blocking was conducted for 30 min at room temperature with inversion every 10 min, then the primary antibody was added directly to each cell tube at the desired concentration and incubated for 1 hr at room temperature inverting every 10 min. Cells were centrifuged at 1,000/5 min, the primary antibody removed and the cells resuspended in 5 mls of 1×PBS. This step was repeated once. Cells were centrifuged at 1,000/5 min and resuspended in 1 ml of 1×PBS w/1% BSA and 0.02% NaN3 (that contains 5% serum) and the secondary antibody was added. Tubes were protected from the light and incubated for 1 hr at room temperature inverting every 10 min. Cells were then centrifuged at 1,000/5 min, the secondary antibody removed and the cells resuspended in 5 mls of 1×PBS. This step was repeated once and then the cells were centrifuged at 1,000/5 min and resuspended in 1 ml of 1×PBS w/1% BSA and 0.02% NaN3 (with the 5% serum added). Tubes were kept on ice until needed for flow cytometry.

[12] = test system: PKCα expression in H-661 NSCLC cells; experiment: Expression of PKCα in H-661 cells, flow cytometry; format: cell-based; details: 5 μM
Description: as §1, §2

[13] = test system: Pgp expression in LS180 colon cancer cells; experiment: Pgp expression in LS180 colon cancer cells, flow cytometry; format: cell-based
Description: as §2
(§3) In view of the key role of the Pgp170 and MRP-1 proteins in MDR, the effect of the PKI compounds on expression of these proteins in LS180 colon cancer cells and H-661 NSCLC cells was investigated. Cells were exposed to doxorubicin (50 ng/mL) for 3 days prior to exogenous treatment with the PKI compounds at a concentration of 5 μM. Results were acquired by flow cytometry, conducted as outlined in Example 17 above, after labelling of the cells with the appropriate antibody (either P-gp #sc 1517 or MRP-1 #sc 7774). The number of cells individually analysed amounted to approximately 50,000 with a statistical error of about 0.08%.
(§4) The increase in the expression of P-gp and MRP-1 was assessed by comparing the % of cells expressing the protein in question in the presence and absence of doxorubicin (i.e. the ratio A/B in the Tables).

[14] = test system: MRP-1 expression in LS180 colon cancer cells; experiment: MRP-1 expression in LS180 colon cancer cells, flow cytometry; format: cell-based
Description: as §2, §3, §4

[15] = test system: Pgp expression in H-661 NSCLC cells; experiment: Pgp expression in H-661 NSCLC cells, flow cytometry; format: cell-based
Description: as §2, §3, §4

[16] = test system: MRP-1 expression in H-661 NSCLC cells; experiment: MRP-1 expression in H-661 NSCLC cells, flow cytometry; format: cell-based; details: compound 5 μM
Description: as §2, §3, §4

PKC isoforms = experiment: PKC isoform panel, PepTag assay; format: biochemical

Structure (SMILES): CC(=O)N[C@@H](CCCCN)C(=O)N[C@@H](CC(C)C)C(=O)N[C@@H](CCCNC(=N)N)C(=O)N[C@@H](CCCNC(=N)N)C(=O)N[C@@H](C)C(=O)N[C@@H](CCCCNC(=O)CN(CCN)C(=O)Cn1cnc2c(N)ncnc21)C(=O)N[C@@H](CCCNC(=N)N)C(=O)N[C@@H](Cc1ccccc1)C(=O)N[C@@H](CC(C)C)C(=O)N[C@@H](CCC(=O)O)C(=O)N[C@H](C(=O)N[C@@H](CC(=O)O)C(N)=O)C(C)C [Compound 7] (Ac-KLRRAK(PNA(A))RFLEVD-NH2)
- Anti-Serine Antibody FL Density (STAT-3; pSTAT3 Ser727, control 70.15): 97.55
- Anti-Tyrosine Antibody FL Density (STAT-3; pSTAT3 Tyr 705, control 43): 43.66
- pERK1/2 FL Density (pERK1/2): 55.9
- effect on Bcl2 expression and localisation (Bcl-2): seems to favour the localisation of Bcl2 in the cytoplasm
- Bcl2 label intensity, Perinuclear (Bcl-2; control 0): 2
- Bcl2 label intensity, Cytoplasmic (Bcl-2; control 1): 4
- Bcl2 label intensity, Nuclear (Bcl-2; control 2): 1
- Percentage Cell Death at 24 h, H661 ([1]; 5 mM): 7%
- Percentage Cell Death at 24 h, H661 ([1]; 10 mM): 17%
- Percentage Cell Death at 24 h, MCF-7 ([2]; 5 mM): 29%
- Percentage Cell Death at 24 h, MCF-7 ([2]; 10 mM): 36%
- Percentage Cell Death at 24 h, MDA-MB-231 ([3]; 5 mM): 27%
- Percentage Cell Death at 24 h, MDA-MB-231 ([3]; 10 mM): 29%
- Percentage Cell Death at 24 h, SKOV-3 ([4]; 5 mM): 14%
- Percentage Cell Death at 24 h, SKOV-3 ([4]; 10 mM): 36%
- Percentage Cell Death at 24 h, LnCAP ([5]; 5 mM): 5%
- Percentage Cell Death at 24 h, LnCAP ([5]; 10 mM): 16%
- Percentage Cell Death at 24 h, Du145 ([6]; 5 mM): 5%
- Percentage Cell Death at 24 h, Du145 ([6]; 10 mM): 11%
- Percentage Cell Death at 24 h, T24 ([7]; 5 mM): 17%
- Percentage Cell Death at 24 h, T24 ([7]; 10 mM): 17%
- Percentage Cell Death at 24 h, IMR32 ([8]; 5 mM): 7%
- Percentage Cell Death at 24 h, IMR32 ([8]; 10 mM): 13%
- Percentage Cell Death at 24 h, LS180 ([9]; 5 mM): 28%
- Percentage Cell Death at 24 h, LS180 ([9]; 10 mM): 55%
- cell death induced in colon cancer cell line LS-180 ([9]; short term, 24 h): very sensitive to cell death
- Percentage Cell Death at 24 h, U251 ([10]; 5 mM): 17%
- Percentage Cell Death at 24 h, U251 ([10]; 10 mM): 21%
- inhibition of motility (MDA-MB-231 cells; After 5 days): 3.0%
- inhibition of motility (MDA-MB-231 cells; day 3 or 4): No inhibition
- effect on PKCα basal expression (summary) [11]: repressive effect
- expression of PKCα, without doxorubicin [12]: moderately reduced PKCα levels
- Cells expressing Pgp, No Doxorubicin (B) ([13]; compound 5 μM): 6.55% and 7.63% and 5.48%
- P-gp basal expression ([13]; without doxorubicin): decreased the basal expression to a variable extent
- Cells expressing MRP-1, +Doxorubicin (A) ([14]; compound 5 μM): 29.33% and 17.06% and 22.42%
- Cells expressing MRP-1, No Doxorubicin (B) ([14]; compound 5 μM): 4.74% and 5.69% and 5.78%
- basal expression of MRP-1 ([14]; without doxorubicin): lower values than that of the controls
- Cells expressing Pgp, +Doxorubicin (A) ([15]; compound 5 μM): 64.75% and 75.18%
- basal expression of P-gp ([15]; without doxorubicin): decreased the basal expression of P-gp
- Cells expressing MRP-1, +Doxorubicin (A) [16]: 58.22% and 72.58%
- Cells expressing MRP-1, No Doxorubicin (B) [16]: 10.05% and 4.04%
- inhibition of PKC isoforms (PKC isoforms): very potent inhibitors of all the PKCs isoforms except PKC epsilon and zeta
